# From a collection of fitness landscapes (doi:10.1126/science.1257360)
# The list shows a part of the results.
# B1: PhoQ; a variant is named by its letters at X, in order, P23837 (parent)
# chain: MKKLLRLFFPLSLRVRFLLATAAVVLVLSLAYGMVALIGYSVSFDKTTFRLLRGESNLFYTLAKWENNKLHVELPENIDKQSPTMTLIYDENGQLLWAQRDVPWLMKMIQPDWLKSNGFHEIEADVNDTSLLLSGDHSIQQQLQEVREDDDDAEMTHSVAVNVYPATSRMPKLTIVVVDTIPVELKSSYMVWSWFIYVLSANLLLVIPLLWVAAWWSLRPIEALAKEVRELEEHNRELLNPATTRELTSLVRNLNRLLKSERERYDKYRTTLTDLTHSLKTPLXXLQXXLRSLRSEKMSVSDAEPVMLEQISRISQQIGYYLHRASMRGGTLLSRELHPVAPLLDNLTSALNKVYQRKGVNISLDISPEISFVGEQNDFVEVMGNVLDNACKYCLEFVEISARQTDEHLYIVVEDDGPGIPLSKREVIFDRGQRVDTLRPGQGVGLAVAREITEQYEGKIVAGESMLGGARMEVIFGRQHSAPKDE
# Variants of: B1
# Test: enrichment ratio after two sorts for PhoP signalling (ratio (wild type AVST 3.29)); higher = more functional
# Details: with PhoP (E. coli)
row,Variant,enrichment ratio
1,QWRP,≤ 0.25
2,IEIH,≤ 0.25
3,SKVV,8.67
4,QWRM,≤ 0.25
5,IGLT,≤ 0.25
6,KSVF,≤ 0.25
7,PAVL,≤ 0.25
8,HPEP,≤ 0.25
9,HDID,≤ 0.25
10,AKRV,≤ 0.25
11,TKCY,6.97
12,EQKS,≤ 0.25
13,HKKS,≤ 0.25
14,VHML,≤ 0.25
15,PECH,≤ 0.25
16,LIDS,≤ 0.25
17,HMAA,≤ 0.25
18,FIVI,0.833
19,VRDY,≤ 0.25
20,AIDF,≤ 0.25
21,SLDV,≤ 0.25
22,SFHS,≤ 0.25
23,DYGQ,≤ 0.25
24,YMPC,≤ 0.25

row,Variant,enrichment ratio
1,NTLE,≤ 0.25
2,HFND,≤ 0.25
3,SEPR,≤ 0.25
4,TNWI,≤ 0.25
5,DMWF,≤ 0.25
6,MCRG,≤ 0.25
7,PVWR,≤ 0.25
8,NSDY,≤ 0.25
9,ISHP,≤ 0.25
10,IMWN,≤ 0.25
11,WIFW,≤ 0.25
12,PVGE,≤ 0.25
13,NTQN,≤ 0.25
14,NKFS,≤ 0.25
15,RIYL,≤ 0.25
16,QIFK,≤ 0.25
17,KCQP,≤ 0.25
18,SGCS,6.16
19,HWSS,≤ 0.25
20,ISII,≤ 0.25
21,TKKL,1.46
22,WRNV,≤ 0.25
23,SWIR,≤ 0.25
24,MDCH,≤ 0.25

row,Variant,enrichment ratio
1,MQLE,2.79
2,SSTR,≤ 0.25
3,RTCH,≤ 0.25
4,ILWY,≤ 0.25
5,TCWV,2.38
6,IQCD,≤ 0.25
7,DCRS,≤ 0.25
8,DLSY,≤ 0.25
9,HRTD,≤ 0.25
10,DLCQ,≤ 0.25
11,DYGK,≤ 0.25
12,GTRA,≤ 0.25
13,ISGA,≤ 0.25
14,APTR,≤ 0.25
15,EMIH,≤ 0.25
16,TSIQ,≤ 0.25
17,KEDN,≤ 0.25
18,PECF,≤ 0.25
19,NKLF,1.02
20,TAFC,≤ 0.25
21,IILS,≤ 0.25
22,PDWF,≤ 0.25
23,QRCM,≤ 0.25
24,NSNT,≤ 0.25

row,Variant,enrichment ratio
1,YRST,≤ 0.25
2,SKMW,≤ 0.25
3,RYQV,≤ 0.25
4,WPFG,≤ 0.25
5,MYQC,≤ 0.25
6,MFAF,≤ 0.25
7,FEQG,≤ 0.25
8,FAWY,≤ 0.25
9,YVKP,≤ 0.25
10,FEAH,≤ 0.25
11,FPLG,≤ 0.25
12,RIEL,≤ 0.25
13,IFKI,2.22
14,ATLQ,11.5
15,GHLL,≤ 0.25
16,FGHY,≤ 0.25
17,LYQS,≤ 0.25
18,WMGP,≤ 0.25
19,ARPW,≤ 0.25
20,IMCK,≤ 0.25
21,QVAQ,≤ 0.25
22,ILCG,≤ 0.25
23,ASSM,19.3
24,KPIC,≤ 0.25

row,Variant,enrichment ratio
1,FNEA,≤ 0.25
2,PKEY,≤ 0.25
3,HNRH,≤ 0.25
4,WASH,≤ 0.25
5,GQDA,≤ 0.25
6,PMWV,≤ 0.25
7,FSAW,≤ 0.25
8,RSQP,≤ 0.25
9,AIVG,7.78
10,AMQV,≤ 0.25
11,KHFT,≤ 0.25
12,HWKQ,≤ 0.25
13,LQEI,≤ 0.25
14,KYGD,≤ 0.25
15,TWAF,≤ 0.25
16,LRHN,≤ 0.25
17,VFHS,≤ 0.25
18,YYIV,≤ 0.25
19,MCRI,≤ 0.25
20,HFGP,≤ 0.25
21,ADMC,2.74
22,KGDQ,7.26
23,ITCM,1
24,PYWL,≤ 0.25

row,Variant,enrichment ratio
1,FDST,≤ 0.25
2,QDTV,≤ 0.25
3,FFFK,≤ 0.25
4,IVVT,≤ 0.25
5,REDC,≤ 0.25
6,VTWY,≤ 0.25
7,PINR,≤ 0.25
8,GVFY,≤ 0.25
9,ANNK,0.253
10,SVCH,12.5
11,WKCH,≤ 0.25
12,VACK,≤ 0.25
13,TCAG,12.5
14,EQLP,≤ 0.25
15,LAED,≤ 0.25
16,NPPN,≤ 0.25
17,IFQN,≤ 0.25
18,GSWE,≤ 0.25
19,VTWQ,≤ 0.25
20,SMHS,≤ 0.25
21,KPCW,≤ 0.25
22,NQLN,≤ 0.25
23,MSHN,≤ 0.25
24,SFAS,≤ 0.25

row,Variant,enrichment ratio
1,ICLA,≤ 0.25
2,NLNC,≤ 0.25
3,LLNP,≤ 0.25
4,QSRD,≤ 0.25
5,DFPM,≤ 0.25
6,ITNY,≤ 0.25
7,LTNQ,≤ 0.25
8,AWAS,≤ 0.25
9,IPAP,≤ 0.25
10,TPCS,≤ 0.25
11,PERP,≤ 0.25
12,SIMN,11
13,LSIR,≤ 0.25
14,YYQH,≤ 0.25
15,CAII,≤ 0.25
16,GNVC,11.6
17,HPDD,≤ 0.25
18,WQIH,≤ 0.25
19,FLVI,≤ 0.25
20,NHHE,≤ 0.25
21,TKLN,8.35
22,RKKT,≤ 0.25
23,EYTI,≤ 0.25
24,VKYT,≤ 0.25

row,Variant,enrichment ratio
1,WMST,≤ 0.25
2,TFDC,≤ 0.25
3,QVLR,≤ 0.25
4,GGGG,≤ 0.25
5,AFIF,≤ 0.25
6,SEGS,4.52
7,DMAY,≤ 0.25
8,TWPM,≤ 0.25
9,IPHF,≤ 0.25
10,MFTP,≤ 0.25
11,ADGI,≤ 0.25
12,PNWT,≤ 0.25
13,INCR,≤ 0.25
14,HMFN,≤ 0.25
15,PHNP,≤ 0.25
16,VSWH,4.36
17,SEPE,≤ 0.25
18,PPSR,≤ 0.25
19,FPLA,≤ 0.25
20,LKWQ,≤ 0.25
21,SRPY,≤ 0.25
22,LEWR,≤ 0.25
23,GLHM,≤ 0.25
24,RWII,≤ 0.25

row,Variant,enrichment ratio
1,QQHI,≤ 0.25
2,LKHL,≤ 0.25
3,FHMF,≤ 0.25
4,AVPK,≤ 0.25
5,DQTA,≤ 0.25
6,SFET,≤ 0.25
7,TWWY,≤ 0.25
8,MMSH,≤ 0.25
9,TFQT,≤ 0.25
10,DKPQ,≤ 0.25
11,QQYK,≤ 0.25
12,IWYN,≤ 0.25
13,FFGL,≤ 0.25
14,NKEP,≤ 0.25
15,LKSN,≤ 0.25
16,WCMI,≤ 0.25
17,GDDV,≤ 0.25
18,MANI,≤ 0.25
19,NCMV,≤ 0.25
20,LAHC,≤ 0.25
21,MPQG,≤ 0.25
22,KFLY,≤ 0.25
23,DFTL,≤ 0.25
24,PILL,≤ 0.25

row,Variant,enrichment ratio
1,MSEY,≤ 0.25
2,WLYM,≤ 0.25
3,RTWS,≤ 0.25
4,LHGT,0.63
5,TMFC,≤ 0.25
6,AGHI,≤ 0.25
7,MMCS,1.11
8,RFLA,≤ 0.25
9,DLME,≤ 0.25
10,YCRR,≤ 0.25
11,GQWN,≤ 0.25
12,ILHI,≤ 0.25
13,PTQH,≤ 0.25
14,TNLI,6.12
15,EYTF,≤ 0.25
16,KTVW,≤ 0.25
17,QNHH,≤ 0.25
18,YESH,≤ 0.25
19,DACC,≤ 0.25
20,VYSD,≤ 0.25
21,GILF,9.67
22,RGLN,≤ 0.25
23,GPPM,≤ 0.25
24,AQEF,≤ 0.25

row,Variant,enrichment ratio
1,REHS,≤ 0.25
2,NGRD,≤ 0.25
3,LHRI,≤ 0.25
4,PYRI,≤ 0.25
5,HGGT,≤ 0.25
6,QQFD,≤ 0.25
7,VNFG,≤ 0.25
8,HHPP,≤ 0.25
9,DITH,≤ 0.25
10,FWLP,≤ 0.25
11,ILHV,≤ 0.25
12,FLPI,≤ 0.25
13,FWCH,≤ 0.25
14,AYIK,≤ 0.25
15,RDHT,≤ 0.25
16,PLLI,≤ 0.25
17,RYFA,≤ 0.25
18,RWPN,≤ 0.25
19,SMTD,≤ 0.25
20,WMAH,≤ 0.25
21,VLLE,≤ 0.25
22,EPWR,≤ 0.25
23,GASN,≤ 0.25
24,YPSN,≤ 0.25

row,Variant,enrichment ratio
1,RPCH,≤ 0.25
2,IDDK,≤ 0.25
3,YIEP,≤ 0.25
4,RRIW,≤ 0.25
5,YGAI,≤ 0.25
6,RDLS,≤ 0.25
7,IGWP,≤ 0.25
8,TLCQ,0.491
9,SMDE,≤ 0.25
10,SGWL,0.434
11,FAEM,≤ 0.25
12,GQGG,≤ 0.25
13,IWPS,≤ 0.25
14,IGMY,≤ 0.25
15,ERRN,≤ 0.25
16,FSKT,≤ 0.25
17,NSGP,≤ 0.25
18,WQTG,≤ 0.25
19,DDYS,≤ 0.25
20,SHVG,≤ 0.25
21,FGPS,≤ 0.25
22,PKGL,≤ 0.25
23,AGRK,≤ 0.25
24,VTLC,9.1

row,Variant,enrichment ratio
1,TGDF,≤ 0.25
2,RSIR,≤ 0.25
3,EQRT,≤ 0.25
4,CQWS,≤ 0.25
5,REFD,≤ 0.25
6,FIWD,≤ 0.25
7,HNQK,≤ 0.25
8,DRAW,≤ 0.25
9,DDVE,≤ 0.25
10,QDLA,≤ 0.25
11,QSNY,2.79
12,VCAA,≤ 0.25
13,DHTL,≤ 0.25
14,EINK,≤ 0.25
15,SSSL,12.5
16,TPLT,≤ 0.25
17,IGEH,≤ 0.25
18,LFYT,≤ 0.25
